The source of these data is PubChem BioAssay AID1645882 (National Center for Advancing Translational Sciences (NCATS), 2021).

Structures are written as SMILES. The whole screen tested about 16,000 compounds, of which about 120 (0.75%) were called active. Roughly 4% stayed inconclusive and do not appear here. Calls come from the whole dose curve; as a rule, active = well fitted inhibition curve with a large enough effect; inconclusive = small, poorly fitted or top-dose-only effect; inactive = no such curve, though single readings can be large or run the other way. The list shows a part of the results.

The experiment addresses Rap guanine nucleotide exchange factor 3 (Homo sapiens) (UniProt O95398). The experiment can be described thus: Validation qHTS for antagonist of cAMP-regulated guanine nucleotide exchange factor 3 (EPAC1). Note: nearly all actives have a fitted effect of over 75% in size. The following applies: EPAC1 Rap1B-BODIPY-GDP exchange, fluorescence; series mostly up to 150 µM; activity change, negative = inhibition: at the top concentration. The procedure, abridged: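 EPAC1 (100 nM) mixed with 250 nM RAP1B-BODIPY-GDP and 50 uM GDP; compounds in concentration series, 5 min at room temperature. Fluorescence (ex 480/em 540 nm) read every 5 min for 30 min; normalized to ATA control and DMSO.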
Chain of UniProt O95398 (O95398 whole entry, looked up): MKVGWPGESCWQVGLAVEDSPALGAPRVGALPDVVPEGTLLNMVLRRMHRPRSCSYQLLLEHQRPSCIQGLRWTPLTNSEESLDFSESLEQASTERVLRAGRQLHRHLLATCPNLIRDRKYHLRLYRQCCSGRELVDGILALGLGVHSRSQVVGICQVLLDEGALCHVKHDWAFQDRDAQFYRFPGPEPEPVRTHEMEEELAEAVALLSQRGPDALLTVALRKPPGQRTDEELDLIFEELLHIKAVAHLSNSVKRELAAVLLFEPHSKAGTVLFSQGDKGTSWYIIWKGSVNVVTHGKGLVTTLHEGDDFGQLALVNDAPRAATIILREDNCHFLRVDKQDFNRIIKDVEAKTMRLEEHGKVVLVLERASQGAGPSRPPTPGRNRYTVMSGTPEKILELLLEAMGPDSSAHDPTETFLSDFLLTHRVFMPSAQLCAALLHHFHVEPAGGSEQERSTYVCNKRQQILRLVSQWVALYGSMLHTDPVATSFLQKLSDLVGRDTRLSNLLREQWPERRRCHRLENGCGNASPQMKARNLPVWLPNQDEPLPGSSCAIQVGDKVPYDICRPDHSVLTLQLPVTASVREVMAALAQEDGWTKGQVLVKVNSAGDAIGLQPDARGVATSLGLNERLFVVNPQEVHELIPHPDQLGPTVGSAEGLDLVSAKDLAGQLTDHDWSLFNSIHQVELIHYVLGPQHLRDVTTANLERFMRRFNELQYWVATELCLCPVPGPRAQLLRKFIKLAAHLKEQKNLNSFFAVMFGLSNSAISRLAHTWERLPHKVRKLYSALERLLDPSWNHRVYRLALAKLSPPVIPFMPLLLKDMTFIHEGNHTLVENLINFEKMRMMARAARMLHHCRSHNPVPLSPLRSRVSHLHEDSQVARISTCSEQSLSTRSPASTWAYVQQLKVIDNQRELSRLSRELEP
(In general: Quantitative high-throughput screening tests each substance at several concentrations.)
In the case of `Oc1ccc(Cl)c2cccnc12`, the activity change, negative = inhibition entry is “inactive”. For the molecule `Cc1ncc2c(c1CNC(=O)c1cncs1)CCN(C(=O)c1ccc(C(C)(C)C)cc1)C2`, the “activity change, negative = inhibition” value was inactive: 6.84%. Turning to `O=C(c1csnn1)N1CCC[C@@]2(CCN(Cc3ccccc3)C2)C1`, the “activity change, negative = inhibition” value is inactive: 6.66%. `COc1ncc2ncc(=O)n(CCc3ccccc3)c2n1`: the “activity change, negative = inhibition” value was inactive: 10.6%. In the case of `COC(=O)N1CCC2(CCCN(C(=O)Nc3ccccc3)C2)CC1`, the “activity change, negative = inhibition” value was inactive: 17.7%.

Consider `Clc1ccccc1-c1nc(NC2CCNCC2)c2ccccc2n1`, for which the “activity change, negative = inhibition” value was inactive: 17.6%. `CCC(=O)c1ccc(O)cc1`: the “activity change, negative = inhibition” value is inactive: 9.07%. With `Cc1ccccc1-c1cc(N(C)C)ncn1`, the “activity change, negative = inhibition” value was inactive: 5.11%. As to `O=c1c(-c2ccc(Cl)cc2)nc2cnc(N3CCOCC3)nc2n1C1CC1`, the “activity change, negative = inhibition” value was inactive: 25.3%. The result for `CN(C)CC(C)(O)c1ccc2c(c1)CN(Cc1cn(C)c3ccccc13)CCO2` (stereo not given) reads inactive: 12.7%; that for `Nc1ccc(-c2nc3ccc(-c4nc5ccc(N)cc5[nH]4)cc3[nH]2)cc1`, inactive: 9.13% [at 75.8 µM].

On to `O=C(Nc1ccc(O)cc1)c1ccccc1O`, for which the “activity change, negative = inhibition” value was inactive: -10.3%. `CS(=O)(=O)CCNCc1ccc(-c2ccc3ncnc(Nc4ccc(OCc5cccc(F)c5)c(Cl)c4)c3c2)o1`: the “activity change, negative = inhibition” value was inactive: 19%. For `Cc1noc(C)c1C(=O)N1CCC[C@@]2(CCN(C(=O)NC(C)C)C2)C1` the value was inactive: 16.2%.

In the case of `Cn1c(=O)c(-c2ccc(Cl)cc2)nc2cncnc21`, the “activity change, negative = inhibition” value was inactive: 22.2%. Turning to `COc1cc(-c2coc3cc(OC)c(OC)c(OC)c3c2=O)cc(OC)c1OC`, the “activity change, negative = inhibition” value is inactive: 9%. `COC(=O)CC1C(C)(C)C(OC(C)=O)C2CC3C4CC(=O)OC(c5ccoc5)[C@]4(C)CCC3[C@@]1(C)C2=O` (stereo not given in full): the “activity change, negative = inhibition” value is inactive: -2.67%. Consider `N#CC[C@H](Cc1ccccc1)N1CC[C@@H](O)CCC1=O`, for which the “activity change, negative = inhibition” value is inactive: 4.29%. For `CC(C)(Sc1cc(C(C)(C)C)c(O)c(C(C)(C)C)c1)Sc1cc(C(C)(C)C)c(O)c(C(C)(C)C)c1`, the activity change, negative = inhibition entry is “inactive”. The result for `CC(C)Cc1nc2cc(NS(=O)(=O)N(C)C)cc(C(=O)N3CCOc4ccccc4C3)c2n1C` reads inactive: 4.07%. For `COc1cccc(Cn2c(=O)c(C)nc3cnc(N4CCN(C)CC4)nc32)c1` the value was inactive: -2.56%; for `CC(C)C[C@@H](COc1ccccc1)N1CCN(Cc2ccccc2)CCC1=O`, inactive: -15.7%. Regarding `CCNc1ncc2nc(-c3cc(F)cc(F)c3)c(=O)n(Cc3ccc(F)cc3)c2n1`, the “activity change, negative = inhibition” value is inactive: 12.3%.

Regarding `COc1ccc(-n2c(=O)c(C)nc3cnc(Nc4cccc(OC)c4)nc32)cc1`, the “activity change, negative = inhibition” value is inactive: -6.75%. Take `CN(CC1COCCO1)C(=O)c1cnn(-c2ncc3c(n2)-c2ccccc2CC3)c1C1CC1` (stereo not given): the “activity change, negative = inhibition” value was inactive: -12.6%. For the molecule `COCc1c(C(=O)N2CCN(c3ccccc3O)CC2)cnn1-c1nccc(-c2cccs2)n1`, the “activity change, negative = inhibition” value is inactive: 1.57%. For `CC(C)NC(=O)N1CCC2(CC1)CCN(C(=O)c1cccn1C)CC2`, the “activity change, negative = inhibition” value is inactive: 14.8%. Consider `O=C(NC1CCCCC1)[C@@H]1CC=C[C@@H]2CCN(Cc3ccc(Cl)c(Cl)c3)C(=O)[C@@H]21`, for which the “activity change, negative = inhibition” value was inactive: -2.52%.

In the case of `COC(=O)CC1C2(C)CC34OC5(C)O[C@@]6(C7/C(=C(/O)C(C)C)C(=O)OC(c8ccoc8)[C@]7(C)C(OC(C)=O)C(OC(C)=O)[C@]6(O5)[C@@]13C)C(OC(C)=O)[C@]4(O)C2OC(=O)C(C)C` (stereo not given in full), the “activity change, negative = inhibition” value is inactive: -24.5%.

`COc1ccc(C2c3[nH]c4ccccc4c3CC3C(=O)N(CCc4ccc(OC)c(OC)c4)CC(=O)N32)cc1` (stereo not given): the “activity change, negative = inhibition” value was inactive: -22.9%.

In the case of `O=C(O)CCC(=O)N1CCCC1C(=O)O` (stereo not given), the “activity change, negative = inhibition” value was inactive: -2.87% [at 75.8 µM]. On to `Clc1ccccc1-c1cc(NCc2ccccc2)ncn1`, for which the “activity change, negative = inhibition” value is inactive: -9.23%.

In the case of `CC1CN(Cc2cccn2-c2ncccn2)Cc2cc(Cl)ccc2O1` (stereo not given), the “activity change, negative = inhibition” value is inactive: -1.1%.

For the molecule `CN1CCc2ccccc2Cc2[nH]c3ccccc3c2CC1`, the activity change, negative = inhibition result was “inactive”. Take `CC(O)(COc1ccccc1)c1ccc2c(c1)CN(Cc1ccc3nsnc3c1)CCO2` (stereo not given): the “activity change, negative = inhibition” value was inactive: -11.2%. Take `C#Cc1cccc(C(=O)NCc2nc(-c3ccccc3NC(C)=O)oc2C)c1`: the “activity change, negative = inhibition” value is inactive: 8.96%. As to `O=C(c1ccccc1)[C@@H]1O[C@H]1c1ccc(-c2ccccc2)cc1`, the “activity change, negative = inhibition” value was inactive: 4.59%. In the case of `CCOC(=O)C1CCCN(C(=O)c2cnn(-c3ncc4c(n3)-c3ccccc3CC4)c2C)C1` (stereo not given), the “activity change, negative = inhibition” value was inactive: -13.5%. Regarding `COc1ccc2c(c1)N(C[C@H](C)CN(C)C)c1ccccc1S2`, the activity change, negative = inhibition entry was “inactive”. For `COC(=O)c1ccccc1O`, the “activity change, negative = inhibition” value was inactive: 23.3%. For `CC(COc1ccccc1)NN` (stereo not given) the value was inactive: 16.6%; for `Cc1cnc(C)c(-c2cc(F)c3c(c2)CC(CNC(=O)c2cccc(Cn4cccn4)c2)O3)n1` (stereo not given), inactive: 17.4%; for `N#Cc1ccc(/C=C2/C=Cc3ccccc32)cc1`, inactive: 29.5%. On to `COc1ccc(CN2CCCC(n3cc(C(=O)NC4CCCC4)nn3)C2)c2ccccc12` (stereo not given), for which the “activity change, negative = inhibition” value is inactive: -4.88%. As for `COC(=O)N1CCC2(CC1)CN(C(=O)Nc1ccc(OC)cc1)C2`, the “activity change, negative = inhibition” value was inactive: 8.73%. As to `Cc1c(C(=O)N2CC3CCC2C3)sc2ncnc(NCCc3c[nH]c4ccccc34)c12` (stereo not given), the “activity change, negative = inhibition” value was inactive: 1.27%. Take `O=Cc1ccnc2ccccc12`: the “activity change, negative = inhibition” value is inactive: -14%. For `O=C(NC1CC1)[C@@H]1C[C@H](Sc2nc3ccccc3[nH]2)CN1CC1CCCCC1` the value was inactive: 1.39%; for `CC[C@H](CC[C@@H](C)[C@H]1CC[C@H]2[C@@H]3CC=C4C[C@@H](O)CC[C@]4(C)[C@H]3CC[C@]12C)C(C)C`, inactive: 13.1%.

As to `COc1ccc(CN2CC[C@H]3C=CC[C@@H](C(=O)Nc4ccccc4)[C@H]3C2=O)cc1OC`, the activity change, negative = inhibition entry is “inactive”. For `Cc1cnc(C)c(-c2cccc3c2OC(CNC(=O)/C=C/c2ccc(F)c(F)c2)C3)n1` (stereo not given), the “activity change, negative = inhibition” value was inactive: 12.3%.

Consider `CCCN(CCC)C(=O)C(CCC(=O)O)NC(=O)c1ccccc1` (stereo not given), for which the activity change, negative = inhibition entry is “inactive”. Take `O=c1cnc2cnc(Oc3cccc(Cl)c3)nc2n1C[C@H]1CCCO1`: the “activity change, negative = inhibition” value is inactive: -0.203%. For `CCCC[n+]1c(C)ccc2ccccc21` the value was inactive: 21.4%. For the molecule `COc1ccc(CN2CC[C@H]3C=CC[C@@H](C(=O)Nc4ccc(Cl)cc4Cl)[C@H]3C2=O)cc1OC`, the “activity change, negative = inhibition” value is inactive: -13.1%. Take `CCN1C(=O)NC(c2ccccc2)C1=O` (stereo not given): the “activity change, negative = inhibition” value was inactive: 3.94% [at 75.8 µM]. As to `COc1ccc(CN2CCOc3ccc(CN4CCN(CCO)CC4)cc3C2)c2ccccc12`, the “activity change, negative = inhibition” value is inactive: 0.345%. Take `COc1ccccc1CN1CCC2(CC1)CCN(C(=O)c1cccn1C)CC2`: the “activity change, negative = inhibition” value is inactive: 30%. Turning to `COc1cccc(-c2cncnc2NCCN2CCOCC2)c1`, the “activity change, negative = inhibition” value is inactive: -3.64%. As to `CN1CCCC(CC2c3ccccc3Sc3ccccc32)C1` (stereo not given), the “activity change, negative = inhibition” value was inactive: 18% [at 75.8 µM]. With `Cc1nc2cnc(N3CCN(C)CC3)nc2n(CCC#N)c1=O`, the “activity change, negative = inhibition” value was inactive: 9.86%. With `Cc1noc(C)c1-c1nc(Nc2ccc(F)cc2)c2ccccc2n1`, the “activity change, negative = inhibition” value is inactive: 19%. Consider `COc1ccccc1N1CCN(CC(O)COc2cccc3ccccc23)CC1` (stereo not given), for which the activity change, negative = inhibition result is “inactive”.

With `CN1CCC(=C2c3ccccc3CC(=O)c3sccc32)CC1`, the activity change, negative = inhibition entry was “inactive”.

With `CCCN(CCC)C[C@@H]1CCCCN1CCNC(=O)N1c2ccccc2C(=O)Nc2cccnc21`, the “activity change, negative = inhibition” value is inactive: -10.7%.
